Data as given in PubChem BioAssay AID624417 (National Center for Advancing Translational Sciences (NCATS), 2012).
The campaign covered roughly 410,000 compounds. About 6,400 (1.6%) were called active. The shares of active, inactive and inconclusive entries below differ from those in the screen. The call rests on the fitted dose curve; in most records, active means well fitted inhibition curve with a large enough effect; inconclusive means small, poorly fitted or top-dose-only effect; inactive means no such curve, though single readings can be large or run the other way. Potencies of inconclusive entries are left out as doubtful fits.

What follows are molecules tested against Glucagon-like peptide 1 receptor (Homo sapiens) (UniProt P43220) (assay: qHTS of GLP-1 Receptor Inverse Agonists (Inhibition Mode)). Conditions: HEK293 GLP-1R CRE-luciferase, luminescence, 24 h, GLP-1R form is constitutively active; activity change, negative = inhibition: at 38.3 µM (top of the series) unless noted.
Sequence of UniProt P43220 (P43220 whole entry, looked up): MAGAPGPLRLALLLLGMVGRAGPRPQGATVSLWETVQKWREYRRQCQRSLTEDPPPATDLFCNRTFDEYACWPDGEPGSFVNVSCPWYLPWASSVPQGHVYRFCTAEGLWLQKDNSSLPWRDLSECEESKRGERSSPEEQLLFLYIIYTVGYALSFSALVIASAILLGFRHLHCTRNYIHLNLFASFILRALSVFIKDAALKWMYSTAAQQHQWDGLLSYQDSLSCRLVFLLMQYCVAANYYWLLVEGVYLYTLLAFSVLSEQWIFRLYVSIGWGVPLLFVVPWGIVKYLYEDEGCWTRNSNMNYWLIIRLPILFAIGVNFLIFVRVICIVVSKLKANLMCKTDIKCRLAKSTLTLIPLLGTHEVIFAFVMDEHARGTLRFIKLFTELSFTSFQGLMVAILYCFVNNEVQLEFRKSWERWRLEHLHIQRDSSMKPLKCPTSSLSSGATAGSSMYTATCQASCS
Outline: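 HEK293 cells stably co-expressing constitutively active GLP-1R and a cAMP-responsive luciferase reporter were seeded in DMEM with 10% Nu serum, given compounds after 12 h, and incubated 24 h at 37 deg C. Luminescence was then read.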
Further: nearly all actives have a fitted effect of over 55% in size.
On the % scale 0 is the no-effect control and ±100 the full control effect; potency means the concentration at half of the fitted maximal effect; tags describe the fitted curve by direction and shape.

SMILES | Potency | activity change, negative = inhibition
COc1ccc(-c2noc(N(C)CC(=O)Nc3cccc(C(F)(F)F)c3)n2)cc1 | inconclusive [inhibitor, single point] | 
CC(=O)N1CCOc2ccc(S(=O)(=O)N3CCN(c4cc(C)ccc4C)CC3)cc21 | inconclusive [inhibitor, partial curve, poor fit] | 
Cc1ccc(C(=O)OCC(=O)Nc2cc(C(C)(C)C)no2)c(C)c1 | inconclusive [inhibitor, partial curve, poor fit] | 
Cn1c(-c2ccc(Cl)cc2)cnc1NCc1cc2c(cc1[N+](=O)[O-])OCO2 | active: 3.98 µM | 
O=C(NC(=S)NCc1ccccc1)c1cccs1 | inconclusive [inhibitor, single point] | 
Cc1nn(C(C)C(=O)NCCC2=CCCCC2)c(=O)c2nn(-c3ccccc3)c(C)c12 (stereo not given) | inconclusive [inhibitor, single point] | 
Cc1cc(C)c(S(=O)(=O)N2CCC(C(=O)OCc3c(C)noc3C)CC2)c(C)c1 | inconclusive [inhibitor, partial curve, poor fit] | 
COc1cccc(C(C)(O)c2nc(-c3cnc4ccccc4c3)cs2)c1 (stereo not given) | inconclusive [inhibitor, partial curve, poor fit] | 
CCCCN(C)S(=O)(=O)c1cc(Br)cc2c1N(C(=O)C1CC1)CC2 | inconclusive [inhibitor, partial curve] | 
Cc1ccc(C(=O)Nc2ncc3c(Cl)cccc3n2)cc1 | active: 7.08 µM | 
O=C(c1ccc(Cn2c(=O)[nH]c3ccccc3c2=O)cc1)N1CCN(c2ccc(F)cc2)CC1 | inconclusive [inhibitor, single point] | 
COc1ccc(CN(C(=O)c2snc(C(N)=O)c2N)C(C(=O)NC2CCCC2)c2ccc(OC)cc2)cc1 (stereo not given) | inconclusive [inhibitor, single point] | 
Cc1ccc(N=Nc2ccc3ccccc3c2O)cc1 | inconclusive [inhibitor, full curve, poor fit] | 
Fc1ccc(CNC(=S)NC2CCCCC2)cc1 | inconclusive [inhibitor, single point] | 
Cc1cc(F)ccc1C(O)c1ncc(-c2ccc(Cl)cc2)[nH]1 (stereo not given) | inconclusive [inhibitor, single point] | 
COc1ccc(NC(=S)NC2CC3CCC2C3)c(OC)c1 (stereo not given) | inconclusive [inhibitor, single point] | 
C/C(=N\NC(=O)c1ccccn1)c1ccc(Cl)cc1 | inconclusive [inhibitor, single point] | 
Cc1noc(C)c1CSc1nc2[nH]ncc2c(=O)n1-c1ccccc1 | inconclusive [inhibitor, full curve, poor fit] | 
CN(CCCNC(=O)c1ccc(/C=N/O)nc1)CCCN(C)Cc1ccccc1 | inconclusive [inhibitor, partial curve, poor fit] | 
Cc1ccc(CCNC(=O)CCCn2c(=O)c3ccccc3n(CC(=O)Nc3cc(Cl)ccc3C)c2=O)cc1 |  | inactive: 1.3%

SMILES | Potency | activity change, negative = inhibition
CC(=O)N1CCc2c(sc3nc(SCC(N)=O)n(-c4ccc(F)c(Cl)c4)c(=O)c23)C1 |  | inactive: 2.47%
Cc1ccccc1-c1nc2sc3c(c2c(=O)n1N)CCCC3 | inconclusive [inhibitor, partial curve, poor fit] | 
Cc1ccc(CN2CCSc3ccc(C(=O)Nc4cc(C)cc(C)c4)cc32)cc1 | inconclusive [inhibitor, partial curve, poor fit] | 
COCCCNC(=S)N/N=C/c1ccc2c(c1)OCO2 | inconclusive [inhibitor, single point] | 
CC(C)(C)Cc1nnc(NC(=O)CN2C(=O)c3ccccc3C2=O)s1 | inconclusive [inhibitor, single point] | 
COC(=O)Cn1c(=O)n(CCc2ccccc2)c(=O)c2c3c(sc21)CCCC3 | inconclusive [inhibitor, partial curve, poor fit] | 
CSc1ccccc1NC(=O)C1(C)CCN1C(=O)Cc1ccc(Cl)cc1Cl (stereo not given) | inconclusive [inhibitor, partial curve, poor fit] | 
Cc1noc(C)c1S(=O)(=O)N(CC(=O)N1CCCC1)c1ccc(C(C)C)cc1 | inconclusive [inhibitor, partial curve, poor fit] | 
CC(=O)O[C@@H]1[C@@]2(C)O[C@H]2CC[C@]23O[C@H]2[C@H](OC3=O)C2=C(C)C(=O)O[C@@]21O |  | inactive: 5.86%
Cc1ccc(Cl)cc1NC(=O)CCCn1c(=O)c2cccn2c2ccccc21 |  | inactive: 13.3%
O=C(COc1ccccc1)Nc1ccc(-c2nnc(-c3ccco3)o2)cc1 |  | inactive: 0.339%
CC1=CC2=NC(=O)/C(=C\c3cccn3CCOc3cc(C)cc(C)c3)C(=N)N2O1 | inconclusive [inhibitor, single point] | 
Cc1ccc(CONC(=O)c2ccc(C)cc2)cc1 | inconclusive [inhibitor, single point] | 
CC(O)(c1ccc(F)c(F)c1)c1nc(-c2cccc(F)c2)cs1 (stereo not given) | inconclusive [inhibitor, single point] | 
CC1CCC(NS(=O)(=O)c2ccc(Cl)s2)CC1 (stereo not given) | inconclusive [inhibitor, single point] | 
CN1CCN(CCCNC(=O)Nc2ccc([N+](=O)[O-])cc2)CC1 | inconclusive [inhibitor, partial curve, poor fit] | 
CC(C)=C[C@@H]1C[C@H](C)[C@H]2CC[C@H](C)c3c(O[C@@H]4O[C@@H](C)[C@@H](O)[C@@H](O)[C@@H]4O)c(O)c(C)c1c32 | inconclusive [inhibitor, partial curve, poor fit] | 
CCC(C)Nc1nc2c(c(=O)n(C)c(=O)n2C)n1Cc1ccc(Cl)cc1 (stereo not given) | inconclusive [inhibitor, single point] | 
Cc1ccc(NC(=O)CSc2nc3ccccc3nc2N2CCCC2)cc1 | inconclusive [inhibitor, single point] | 
COc1cc(C2c3c(n[nH]c3C)C(=O)N2c2ccc(C)cc2)ccc1O (stereo not given) | inconclusive [inhibitor, single point] | 

SMILES | Potency | activity change, negative = inhibition
COc1ccccc1NC(=O)N(Cc1ccco1)Cc1cc2cccc(C)c2[nH]c1=O | active: 11.2 µM | 
COc1cc2c(cc1OC)C(COc1ccc3c(C)cc(=O)oc3c1)N(C(=O)c1cccc(OC)c1OC)CC2 (stereo not given) |  | inactive: 29.5%
COc1ccccc1C(NC(=O)C1CCN(CCOc2ccc(Cl)cc2Cl)CC1)c1ccccn1 (stereo not given) | inconclusive [inhibitor, single point] | 
COc1ccc(C(=O)/C=C/c2cccc(OCc3ccccc3)c2)cc1CSCC(=O)O | inconclusive [inhibitor, single point] | 
COCc1cc(CN2CCCC(C(=O)c3cccc(C(F)(F)F)c3)C2)ccc1OC (stereo not given) | inconclusive [inhibitor, partial curve, poor fit] | 
Cc1ccc(C(=O)N/N=C\c2ccc(-c3ccc(Cl)c(Cl)c3)o2)cn1 | inconclusive [inhibitor, single point] | 
c1ccc(CN2CCc3[nH]c4ccccc4c3C2)cc1 | inconclusive [inhibitor, single point] | 
Cc1cccc(C)c1OCC(=O)Nc1cccc(-c2nnc(-c3ccccc3)o2)c1 | inconclusive [inhibitor, single point] | 
CCCCOc1ccc(C(=O)NCC(=O)N2CC=C(c3ccccc3)CC2)cc1 | inconclusive [inhibitor, partial curve, poor fit] | 
Cc1c(-c2cccc(Cl)c2)nc2ccccc2c1C(=O)NC1CC1 | inconclusive [inhibitor, partial curve, poor fit] | 
Cc1ccc(-c2nc(CSCC(=O)NC3CCN(Cc4ccccc4)CC3)c(C)o2)cc1 | inconclusive [inhibitor, partial curve, poor fit] | 
CC(C(=O)NCC1CCCCC1)N1CCN(S(=O)(=O)c2cccs2)CC1 (stereo not given) | inconclusive [inhibitor, partial curve] | 
CCc1cc2c(=O)c(-c3cnn(-c4ccccc4)c3)c(C)oc2c(CN2CCCCC2)c1O |  | inactive: -17.1%
Cc1nc2cc(C(=O)OCC(=O)NC34CC5CC(CC(C5)C3)C4)ccc2n1-c1ccccc1 | inconclusive [inhibitor, single point] | 
Cc1cc(C)cc(CC2CC(=O)N(c3cc(C)ccc3C)C2=O)c1 (stereo not given) | inconclusive [inhibitor, single point] | 
CCCCNc1nnc(SCC(=O)N2CCN(S(=O)(=O)c3ccc4ccccc4c3)CC2)s1 | inconclusive [inhibitor, single point] | 
c1ccc(Cn2nnc(CNc3ccccc3)c2-c2c(CNc3ccccc3)nnn2Cc2ccccc2)cc1 | inconclusive [inhibitor, partial curve, poor fit] | 
COc1ccc2nc(NC(=O)CN3C(=O)NC4(CCCCC4)C3=O)sc2c1 | inconclusive [inhibitor, partial curve, poor fit] | 
CCOc1ccc(S(=O)(=O)N2CCN=C2Cc2ccccc2)cc1C | inconclusive [inhibitor, partial curve, poor fit] | 
CC(C)OCCCNC(=O)COCC(=O)Nc1ccc(OCCc2ccccc2)cc1 | inconclusive [inhibitor, single point] | 
